Here are results for 22 molecules from article PMC12136788.

The list shows a part of the results.

B1: chr7:99579578:99579579:+_ENSMUSG00000052572_ENSMUST00000098308|mus_mus|motif|central (ssRNA)
RNA: GGGAGUUCUACAGUCCGACGAUCAAAUCUCACAGAUUGCACACUGGUUCCGUAUAAAUUGUCAUUGUACUGGCCAGCUUCGGUAAAUUUGUGCUCUUGGAUAUCUUUCUCCAUUUGUUCUCUAGAAAUGACAAAGUGAUAGUCCAACAGAGGAUUGAGCAUCA
B2: chr17:7479872:7479873:+_ENSG00000161960_ENST00000293831|hu_hu|motif|central (ssRNA)
RNA: GGGAGUUCUACAGUCCGACGAUCAGCACGCACGUUGGUGCCCCCGAUACAGGCGUGACAGGAGGCGCCCAUGUAGUCUCCGGGUGCCAUGACCACCUUCUGUAUCUGCUGAGCCAAUUCUCGAGUGGGUGCUAGGACCAAGGCCAACAGAGGAUUGAGCAUCA
B3: chr7:151048522:151048523:+_ENSG00000013374_ENST00000566856|hu_mus|hu_hu_hu_mus_True|38_48 (ssRNA)
RNA: GGGAGUUCUACAGUCCGACGAUCCUGUUUCUUAUUUAUUACGAUCUUGAUGUAAUUUUCUUGAAAUCCGAAAGUUUCAGCUAUUUGGGACCUCAGUUCUCUGCCAGUGACAUGCAAGCGGGUCUCCAACAAGCUUUUCUUAUCCAACAGAGGAUUGAGCAUCA
B4: 104373753_104374693_605_3pUTR_ENSG00000139372_ENST00000392872|human|control|control (ssRNA)
RNA: GGGAGUUCUACAGUCCGACGAUCAUUAGUCCCGGGUUUAUGCCAAUAAUGACAAUGUCCAGAUUGAAGGUCAAAAUAUCGGGGAGAGUCUUGGUCAGAAGUUCAGCUUCUGAAACACCAUUAAAACGGUCUACUUUUCUUUUUCAACAGAGGAUUGAGCAUCA
B5: 10487840_10492479_495_CDS_ENSMUSG00000024743_ENSMUST00000169121|mouse|control|control (ssRNA)
RNA: GGGAGUUCUACAGUCCGACGAUCCUCCAAGGAAUUCUUGUAGCGUUUGCCCAGUUUGCGCUGACACCAGUGGCACAGGCCGCAGAGGACGAUAGUGACGCUAAGGCUGACGGUGAUGAUUGCAGAGACCAGCAGGACAUCGCGCAACAGAGGAUUGAGCAUCA
B6: chr7:149068622:149068623:-_ENSMUSG00000025139_ENSMUST00000001950|mus_hu|mus_mus_mus_hu_False|8_48 (ssRNA)
RNA: GGGAGUUCUACAGUCCGACGAUCGUGAGGCCUCUGAGUGUGGCUUGUGGUCUGUCCUGGGUUAGAGUUGUUAAUAUCACGGAACAUACCACUUAAGACGUUCCAGUCCCGCCUGACACCUUCAUUCGCAAGAGGGCAGAAAUCCAACAGAGGAUUGAGCAUCA
B7: 42223075_42223195_2112_3pUTR_ENSMUSG00000037287_ENSMUST00000125995|mouse|control|control (ssRNA)
RNA: GGGAGUUCUACAGUCCGACGAUCGGCGCAGAGGUGCUGGAGCGGUUAGAAUGCCCAGCGCAGGCUUCCAGGGGAGUAGCGAGUUUCCCAGGGCUAACACUCCGCCUACUUCUCUCUAAAACCUAACCGAGUUCCUGAGAUCAGCAACAGAGGAUUGAGCAUCA
B8: chr1:33854737:33854738:-_ENSMUSG00000042197_ENSMUST00000044455|mus_mus|FALSE|FALSE (ssRNA)
RNA: GGGAGUUCUACAGUCCGACGAUCGGUAACUUCCUCCUUUAAAAUUUAAGUGAAAAGAACUAACUAGUUUGUAUGCCCACUAAAAACCAUACAGAACCAAUCUGACCAAUUGAAUGACAUGCAUAAGAUAUACCCACAGUGACACAACAGAGGAUUGAGCAUCA
B9: 120571774_120571894_2467_3pUTR_ENSMUSG00000090100_ENSMUST00000028740|mouse|control|control (ssRNA)
RNA: GGGAGUUCUACAGUCCGACGAUCGUGUCACCAUCUCUCAUGUUGGGUAACAUGUCAUGACCAGUGUGAUCUAUCUGAAGUCCCAAAUCCACUCUGCUUCCUCCGCUAGCUAGUUCACCCUCUGUCACAACCAAGCCGGAGAAGCAACAGAGGAUUGAGCAUCA
B10: chr7:141450121:141450122:+_ENSG00000106028_ENST00000265304|hu_mus|hu_hu_hu_mus_True|18_88 (ssRNA)
RNA: GGGAGUUCUACAGUCCGACGAUCUCAUCCGUUCUAUGCCUUUUCUUUCGUCUGGUCACUCAGAAAUAUAAUGUUAUCAGCUAUGAUUGUUGUUGCUUGCCGCCUCACAUUGUUUUUAUCCAUGUAUUCGCCAUAGUCCACUUUCAACAGAGGAUUGAGCAUCA
B11: chr7:75932113:75932114:+_ENSG00000106211_ENST00000248553|hu_hu|hu_hu_hu_mus_False|8_108 (ssRNA)
RNA: GGGAGUUCUACAGUCCGACGAUCCUGCGACCACUCCUCGGGCAACCGGGGCACCCCGAAAGCUUGAUCGAAGAGGCGGCUGUGUGCAGGGUACCAGUCCCGGAAUGGUUCCCAGCUCGGGCUCCGCAGCGAGAAGGAGGGCACCAACAGAGGAUUGAGCAUCA
B12: chr11:48615247:48615248:+_ENSMUSG00000020372_ENSMUST00000020640|perfect_dup|motif|central (ssRNA)
RNA: GGGAGUUCUACAGUCCGACGAUCUCCGUCCCAGGAGCCCGAGAGGGCAAACUGACCAUCAGAGGAGAUAACAACAUCACGGACGAAGUGGGAGUGACCUCUCAGAGCACGCUGUGGUAUGCCAUAGUUGGUCUCAUCUCUGGUCAACAGAGGAUUGAGCAUCA
B13: 32646967_32647087_477_CDS_ENSG00000084652_ENST00000373610|human|control|control (ssRNA)
RNA: GGGAGUUCUACAGUCCGACGAUCCCCCUUGGAGGGUUCCUUCUCUCCAUUGACUACUGGAGUUGGUUCAGGCUCCCCAUUCCUUGCCACAUAGGUCCGGGACUUCUCUGCAUCUUCGGGUUCAGCCGGCUCACCCUGUGCCCCCAACAGAGGAUUGAGCAUCA
B14: chr2:32530670:32530671:+_ENSG00000119820_ENST00000437765|hu_hu|motif|central (ssRNA)
RNA: GGGAGUUCUACAGUCCGACGAUCCCAAUUCCUUCAGCAAGAAUUCCCAGCCUACACACAAAUUUAACACCAUCUUUUUCGGUUCAUGUAUAACUUGGAUCACACACCAGUAUAUAACGACAAAAAAUAAAUGUAUAAUAAAAACAACAGAGGAUUGAGCAUCA
B15: chr9:51871721:51871722:+_ENSMUSG00000032050_ENSMUST00000163153|mus_mus|motif|central (ssRNA)
RNA: GGGAGUUCUACAGUCCGACGAUCUGUUUUUACAACCUGGUCAAAAAGUUGUUUGCCAGUUGUAUUGGGCUGGAUGGCAAAUUCGGGCUCAGCGUCCAUUGUAGUUACUCUUACAUUGAUUGGCUUCGGCAUUUUCUUUUUCUUCAACAGAGGAUUGAGCAUCA
B16: 152482986_152483106_2665_3pUTR_ENSMUSG00000039037_ENSMUST00000044278|mouse|control|control (ssRNA)
RNA: GGGAGUUCUACAGUCCGACGAUCUGAAUAGUUCUACUUAAUGAAAGGGCAUGGGACAUUAUCACUAAUUAAAAAGAUGGGAAAGAACUGGUGGUAUGAGACACUUUAUUCACAAGUCCUGUCCUGUUUGUAGAGAAUGCCUGUCAACAGAGGAUUGAGCAUCA
B17: chr17:65740002:65740003:+_ENSG00000130935_ENST00000581375|hu_hu|hu_hu_hu_mus_False|28_38 (ssRNA)
RNA: GGGAGUUCUACAGUCCGACGAUCAACAAAUCUUUCUUCCCUGGACGAACAGGAAGAUUCAUAUUAAAAAAAAUAUAUAUCCAUCAAGUUAGGUGUGUAAUAUCAGAAGAGCUCCAGAGCACUUUGGGAGGUGGAUCUCUGAGUCAACAGAGGAUUGAGCAUCA
B18: chr7:150253219:150253220:+_ENSMUSG00000037706_ENSMUST00000037941|mus_hu|FALSE|FALSE (ssRNA)
RNA: GGGAGUUCUACAGUCCGACGAUCCCGGAUGCCACAGCACAGCACCAUGCUCAGGAUCAUCUCGAAGAUCAUGAUCACAGCGACCACGAUGGCAGCAAUGCCGAUGAGGUACAGCUUCCCGGAGAAGAGGUCAUCGAUCUUCUGCAACAGAGGAUUGAGCAUCA
B19: chr5:21408736:21408737:-_ENSMUSG00000042453_ENSMUST00000161356|mus_hu|mus_mus_mus_hu_False|8_28 (ssRNA)
RNA: GGGAGUUCUACAGUCCGACGAUCGUUGACAGAGUUGUAGAUGGUGGCUUCAUGGAACUGGAAAGGGGAGCAGCCAAUGCUGUUAGAAGAGGAAGGAAGGCACUGGGUCUGCACGAGCUGCCAGGAAUCGGACCUUGCAUCCUUCAACAGAGGAUUGAGCAUCA
B20: chr5:128440902:128440903:+_ENSG00000066583_ENST00000173527|hu_mus|hu_hu_hu_mus_True|1_98 (ssRNA)
RNA: GGGAGUUCUACAGUCCGACGAUCUUGAACGGUGCUGCCAAGACCUUUGGGGUAUUGUUCCGUUAUGAUAACUGGAAUCCCUAAGAUCCGAGCUCCUUGCAACAGUCUCUGUCCCACACUAAUGAUGUCCCCAAAGUACUUGAUCAACAGAGGAUUGAGCAUCA
B21: chr12:39763582:39763583:-_ENSG00000139116_ENST00000544797|hu_mus|hu_hu_hu_mus_False|48_108 (ssRNA)
RNA: GGGAGUUCUACAGUCCGACGAUCCUCUAAGAAUUGGGCAUUCACUUUGAAUUCAGGAGGGGGCAGCCCGUUUUUAAUCGCUGAGGUUUUUUUUUCUUCAAUACUCUUGAACAGGUGUCUAACAGCACGAGAGAUGAUGCCCUGCAACAGAGGAUUGAGCAUCA
B22: chr7:141438946:141438947:+_ENSG00000106028_ENST00000265304|hu_mus|hu_hu_hu_mus_True|18_18 (ssRNA)
RNA: GGGAGUUCUACAGUCCGACGAUCGACGAAAUACCUGUAACACAGGUCUUCGAAACAUGGCUUCUGUUUUUCUUACAACCUAAUCUUUAGGCUUUUCCUAAAGGAAAGAAAGAAAAGGCCCAGCCACUAAAUCAAGAAACUACACAACAGAGGAUUGAGCAUCA

In this test the target is T1, UNK ZnF1-3 (human, UniProt Q9C0B0 31-174).
T1 sequence: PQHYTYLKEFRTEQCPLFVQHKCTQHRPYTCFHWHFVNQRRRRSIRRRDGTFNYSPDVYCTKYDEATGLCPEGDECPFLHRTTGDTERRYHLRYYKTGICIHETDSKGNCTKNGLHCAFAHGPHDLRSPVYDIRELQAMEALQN
Kind of test: nsRBNS (natural sequence RNA bind-n-seq); RBNS binding buffer (assumed for nsRBNS): 25 mM Tris pH 7.5, 150 mM KCl, 3 mM MgCl2, 0.01% Triton X-100, 500 ug/ml BSA, 20 U/ml SUPERase-In, 4 C; UNK is unkempt and MSI1 is Musashi-1; names of the RNAs are library labels; protein concentration not given here; high values mean tight binding.
B1 returned a binding signal of 0.803 enrichment R.

For the molecule B2, the binding signal turned out to be 1.76 enrichment R.

On to B3, for which the binding signal was 0.52 enrichment R.

With B4, the binding signal came to 1.12 enrichment R.

Take B5: the binding signal was determined as 1.23 enrichment R.

In the case of B6, the binding signal was 0.809 enrichment R.

Regarding B7, the binding signal is 1.2 enrichment R.

Take B8: the binding signal turned out to be 0.912 enrichment R.

B9: the binding signal amounted to 0.662 enrichment R.

For B10, the binding signal came out at 0.449 enrichment R.

Consider B11, for which the binding signal was 1.22 enrichment R.

As to B12, the binding signal worked out at 1.29 enrichment R.

Regarding B13, the binding signal was 0.958 enrichment R.

For B14, the binding signal is 3.17 enrichment R.

B15 registered a binding signal of 0.457 enrichment R.

For B16, the binding signal was 1.56 enrichment R.

In the case of B17, the binding signal worked out at 2.27 enrichment R.

In turn, B18 had a binding signal of 0.946 enrichment R.

Regarding B19, the binding signal is 1.66 enrichment R.

The molecule B20 had a binding signal of 0.675 enrichment R.

In turn, B21 gave a binding signal of 1.81 enrichment R.

Take B22: the binding signal came out at 0.53 enrichment R.
